These are yes or no findings as the source states them, for the method shown. For some assays here: In cells and extracts the contact can be indirect. Some entries that bind do so weakly or less than the wild type. For some assays here: Tags and fused reporters may be left off the sequences shown.

Chains of the proteins cited; added tags and fusions are not shown.
UniProt P16220: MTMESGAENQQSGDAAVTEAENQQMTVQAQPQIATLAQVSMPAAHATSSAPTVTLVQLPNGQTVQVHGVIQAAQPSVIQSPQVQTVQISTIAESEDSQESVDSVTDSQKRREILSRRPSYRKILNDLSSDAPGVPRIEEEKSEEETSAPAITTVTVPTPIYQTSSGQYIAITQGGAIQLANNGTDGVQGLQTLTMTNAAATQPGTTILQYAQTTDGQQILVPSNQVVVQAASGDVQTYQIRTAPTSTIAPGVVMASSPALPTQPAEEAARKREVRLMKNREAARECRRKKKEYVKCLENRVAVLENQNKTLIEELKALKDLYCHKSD
UniProt P24863: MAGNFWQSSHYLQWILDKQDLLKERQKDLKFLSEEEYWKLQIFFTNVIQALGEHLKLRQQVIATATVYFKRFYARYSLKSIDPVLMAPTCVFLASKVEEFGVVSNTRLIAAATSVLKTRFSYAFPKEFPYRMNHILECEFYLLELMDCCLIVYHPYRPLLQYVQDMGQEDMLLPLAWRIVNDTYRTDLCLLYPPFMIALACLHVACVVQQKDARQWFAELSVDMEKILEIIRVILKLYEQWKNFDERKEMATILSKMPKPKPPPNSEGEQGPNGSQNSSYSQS
UniProt P08659: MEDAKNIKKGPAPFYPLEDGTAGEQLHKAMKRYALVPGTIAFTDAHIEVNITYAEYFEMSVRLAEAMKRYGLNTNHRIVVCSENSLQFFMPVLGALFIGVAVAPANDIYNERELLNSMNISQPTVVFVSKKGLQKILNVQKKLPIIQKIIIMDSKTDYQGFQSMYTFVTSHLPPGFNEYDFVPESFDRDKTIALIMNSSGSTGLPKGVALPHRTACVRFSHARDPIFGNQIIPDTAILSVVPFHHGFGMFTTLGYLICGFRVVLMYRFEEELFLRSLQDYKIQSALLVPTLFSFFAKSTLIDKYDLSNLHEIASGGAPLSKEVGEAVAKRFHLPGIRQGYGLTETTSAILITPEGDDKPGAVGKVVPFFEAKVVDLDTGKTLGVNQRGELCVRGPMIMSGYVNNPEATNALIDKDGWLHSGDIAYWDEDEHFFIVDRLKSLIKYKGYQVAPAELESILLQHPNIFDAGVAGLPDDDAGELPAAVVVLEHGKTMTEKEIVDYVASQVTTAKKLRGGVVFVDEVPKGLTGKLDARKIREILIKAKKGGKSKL
UniProt Q9UHV7: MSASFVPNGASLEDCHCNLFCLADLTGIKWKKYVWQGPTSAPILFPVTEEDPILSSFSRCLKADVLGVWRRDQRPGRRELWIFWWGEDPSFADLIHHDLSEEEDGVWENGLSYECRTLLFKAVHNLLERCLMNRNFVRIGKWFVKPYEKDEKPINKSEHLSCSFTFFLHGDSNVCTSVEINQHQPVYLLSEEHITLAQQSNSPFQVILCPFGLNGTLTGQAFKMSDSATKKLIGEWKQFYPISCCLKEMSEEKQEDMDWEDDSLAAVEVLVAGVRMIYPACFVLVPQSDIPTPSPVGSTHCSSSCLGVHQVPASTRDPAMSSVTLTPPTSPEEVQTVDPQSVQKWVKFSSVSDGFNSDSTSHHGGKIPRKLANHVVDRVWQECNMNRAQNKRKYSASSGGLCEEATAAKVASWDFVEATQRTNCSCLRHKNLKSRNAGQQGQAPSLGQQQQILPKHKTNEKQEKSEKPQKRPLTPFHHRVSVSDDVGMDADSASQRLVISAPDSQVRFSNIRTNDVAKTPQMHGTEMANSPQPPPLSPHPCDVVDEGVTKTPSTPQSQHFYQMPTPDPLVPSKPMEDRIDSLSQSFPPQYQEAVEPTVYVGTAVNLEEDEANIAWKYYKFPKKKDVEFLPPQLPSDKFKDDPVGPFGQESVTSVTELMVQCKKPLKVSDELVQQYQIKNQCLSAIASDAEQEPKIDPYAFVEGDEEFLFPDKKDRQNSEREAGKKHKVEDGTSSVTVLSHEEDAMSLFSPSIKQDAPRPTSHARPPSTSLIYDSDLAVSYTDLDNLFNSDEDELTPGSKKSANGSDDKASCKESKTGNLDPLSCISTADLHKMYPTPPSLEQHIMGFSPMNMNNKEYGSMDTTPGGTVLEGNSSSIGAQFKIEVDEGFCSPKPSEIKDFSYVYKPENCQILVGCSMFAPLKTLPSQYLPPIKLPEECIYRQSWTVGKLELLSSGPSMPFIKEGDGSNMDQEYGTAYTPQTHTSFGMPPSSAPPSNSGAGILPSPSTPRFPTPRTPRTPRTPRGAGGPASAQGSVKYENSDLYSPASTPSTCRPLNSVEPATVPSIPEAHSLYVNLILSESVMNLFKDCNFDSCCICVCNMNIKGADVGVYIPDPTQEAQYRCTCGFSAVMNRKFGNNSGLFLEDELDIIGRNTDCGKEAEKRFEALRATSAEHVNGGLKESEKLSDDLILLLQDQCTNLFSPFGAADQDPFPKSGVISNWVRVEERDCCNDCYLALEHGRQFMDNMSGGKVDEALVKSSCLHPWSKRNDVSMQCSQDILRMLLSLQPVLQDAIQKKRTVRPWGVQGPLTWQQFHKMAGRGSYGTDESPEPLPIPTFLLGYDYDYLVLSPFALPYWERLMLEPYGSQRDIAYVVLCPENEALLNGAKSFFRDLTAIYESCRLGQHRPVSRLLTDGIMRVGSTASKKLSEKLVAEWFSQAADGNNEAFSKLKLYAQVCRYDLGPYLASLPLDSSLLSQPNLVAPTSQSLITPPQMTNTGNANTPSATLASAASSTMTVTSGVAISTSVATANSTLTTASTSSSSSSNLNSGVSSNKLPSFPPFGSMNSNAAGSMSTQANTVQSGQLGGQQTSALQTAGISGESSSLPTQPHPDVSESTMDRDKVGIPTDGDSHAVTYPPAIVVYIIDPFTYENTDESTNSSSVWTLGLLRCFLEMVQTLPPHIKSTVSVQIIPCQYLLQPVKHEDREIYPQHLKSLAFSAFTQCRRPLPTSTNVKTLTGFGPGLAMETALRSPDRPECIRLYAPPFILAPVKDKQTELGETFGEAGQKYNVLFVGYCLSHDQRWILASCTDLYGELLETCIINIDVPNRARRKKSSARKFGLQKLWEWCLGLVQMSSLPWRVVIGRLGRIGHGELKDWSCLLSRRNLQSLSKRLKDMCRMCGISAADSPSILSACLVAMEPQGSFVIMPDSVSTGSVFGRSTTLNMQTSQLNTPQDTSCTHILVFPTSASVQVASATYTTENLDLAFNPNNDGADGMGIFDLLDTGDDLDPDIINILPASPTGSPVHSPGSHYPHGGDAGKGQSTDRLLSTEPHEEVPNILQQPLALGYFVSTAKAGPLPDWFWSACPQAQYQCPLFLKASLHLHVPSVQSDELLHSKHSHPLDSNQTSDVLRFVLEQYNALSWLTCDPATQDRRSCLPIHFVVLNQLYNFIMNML
UniProt P20226: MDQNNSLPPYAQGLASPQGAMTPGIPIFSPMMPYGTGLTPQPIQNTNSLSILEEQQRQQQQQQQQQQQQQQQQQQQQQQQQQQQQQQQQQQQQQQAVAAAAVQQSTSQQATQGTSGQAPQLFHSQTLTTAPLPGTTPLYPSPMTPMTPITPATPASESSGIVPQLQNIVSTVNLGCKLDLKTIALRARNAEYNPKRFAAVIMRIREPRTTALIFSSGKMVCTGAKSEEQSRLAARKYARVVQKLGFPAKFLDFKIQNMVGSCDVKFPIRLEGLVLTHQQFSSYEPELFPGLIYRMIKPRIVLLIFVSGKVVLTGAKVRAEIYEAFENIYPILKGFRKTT
UniProt Q00403: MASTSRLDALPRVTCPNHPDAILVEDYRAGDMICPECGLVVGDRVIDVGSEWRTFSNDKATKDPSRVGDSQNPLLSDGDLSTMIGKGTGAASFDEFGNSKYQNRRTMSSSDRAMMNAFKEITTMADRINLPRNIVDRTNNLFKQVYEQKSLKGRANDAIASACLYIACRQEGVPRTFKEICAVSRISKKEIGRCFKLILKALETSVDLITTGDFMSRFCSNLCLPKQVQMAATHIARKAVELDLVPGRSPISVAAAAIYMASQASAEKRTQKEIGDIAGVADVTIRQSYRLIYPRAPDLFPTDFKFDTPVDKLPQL
UniProt P49336: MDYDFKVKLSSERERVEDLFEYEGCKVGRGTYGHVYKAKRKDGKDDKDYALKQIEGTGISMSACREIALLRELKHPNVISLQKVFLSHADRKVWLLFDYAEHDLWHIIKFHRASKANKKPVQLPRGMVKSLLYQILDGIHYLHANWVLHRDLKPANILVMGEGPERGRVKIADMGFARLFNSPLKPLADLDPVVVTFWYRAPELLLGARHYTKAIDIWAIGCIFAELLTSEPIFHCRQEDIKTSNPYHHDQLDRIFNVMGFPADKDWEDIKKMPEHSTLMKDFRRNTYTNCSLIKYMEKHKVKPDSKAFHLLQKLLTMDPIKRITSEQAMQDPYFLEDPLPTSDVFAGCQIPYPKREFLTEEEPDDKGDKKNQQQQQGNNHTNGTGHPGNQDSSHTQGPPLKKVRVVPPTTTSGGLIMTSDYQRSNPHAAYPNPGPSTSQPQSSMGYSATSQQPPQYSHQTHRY

In test [1] the target is T1, hnRNP R, endogenous in HeLa nuclear extract (human (endogenous in HeLa)) (UniProt O43390).
T1 sequence: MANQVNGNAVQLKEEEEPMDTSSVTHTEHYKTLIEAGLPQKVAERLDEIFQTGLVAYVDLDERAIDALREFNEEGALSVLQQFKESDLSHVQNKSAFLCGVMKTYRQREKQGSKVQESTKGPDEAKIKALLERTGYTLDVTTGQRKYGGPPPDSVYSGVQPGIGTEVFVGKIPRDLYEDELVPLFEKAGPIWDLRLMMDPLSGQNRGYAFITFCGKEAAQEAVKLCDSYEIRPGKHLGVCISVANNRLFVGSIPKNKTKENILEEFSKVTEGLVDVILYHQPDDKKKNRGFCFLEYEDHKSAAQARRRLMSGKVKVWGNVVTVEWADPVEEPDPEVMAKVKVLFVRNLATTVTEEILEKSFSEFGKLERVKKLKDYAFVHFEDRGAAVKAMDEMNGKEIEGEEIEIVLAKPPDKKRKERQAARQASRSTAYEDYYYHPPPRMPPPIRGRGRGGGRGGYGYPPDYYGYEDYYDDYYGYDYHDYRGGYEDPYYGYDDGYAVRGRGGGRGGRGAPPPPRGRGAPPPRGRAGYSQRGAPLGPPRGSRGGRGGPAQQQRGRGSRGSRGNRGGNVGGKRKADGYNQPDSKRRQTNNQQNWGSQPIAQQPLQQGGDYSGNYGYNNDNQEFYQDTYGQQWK
Description: co-IP; HeLa nuclear extract (~20 mg protein) with 1 ug purified anti-hnRNP R antibody, 4 C, rProtein A Sepharose; washed with buffer C with 100 mM KCl, 0.01% Nonidet P-40; Western blot. For orientation: Immunoblotting shows a protein as a band on a membrane.

The target in test [2] is T2, 3xFLAG-tagged MED10 (Nut2) (UniProt Q9BTT4).
T2 sequence: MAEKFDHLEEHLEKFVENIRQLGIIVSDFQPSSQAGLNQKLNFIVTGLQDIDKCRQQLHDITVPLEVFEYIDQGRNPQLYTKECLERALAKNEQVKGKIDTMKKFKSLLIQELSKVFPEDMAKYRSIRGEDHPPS
Description: co-IP; Med(0.5): 0.5 M KCl phosphocellulose (P11) fraction of nuclear extract of HeLa cells expressing 3xFLAG-MED10, purified on anti-FLAG M2 affinity gel; subunits detected by Western blot.

The target of test [3] is T2, 3xFLAG-tagged MED10 (Nut2). As to the kind of experiment: condition: only Mediator purified from the 0.85 M KCl P11 fraction; co-IP; Med(0.85): 0.85 M KCl phosphocellulose (P11) fraction of nuclear extract of HeLa cells expressing 3xFLAG-MED10, purified on anti-FLAG M2 affinity gel; subunits detected by Western blot.
Test [4] concerns the target T3, GST-hnRNP R (heterogeneous nuclear ribonucleoprotein R) (human) (UniProt O43390).
T3 sequence: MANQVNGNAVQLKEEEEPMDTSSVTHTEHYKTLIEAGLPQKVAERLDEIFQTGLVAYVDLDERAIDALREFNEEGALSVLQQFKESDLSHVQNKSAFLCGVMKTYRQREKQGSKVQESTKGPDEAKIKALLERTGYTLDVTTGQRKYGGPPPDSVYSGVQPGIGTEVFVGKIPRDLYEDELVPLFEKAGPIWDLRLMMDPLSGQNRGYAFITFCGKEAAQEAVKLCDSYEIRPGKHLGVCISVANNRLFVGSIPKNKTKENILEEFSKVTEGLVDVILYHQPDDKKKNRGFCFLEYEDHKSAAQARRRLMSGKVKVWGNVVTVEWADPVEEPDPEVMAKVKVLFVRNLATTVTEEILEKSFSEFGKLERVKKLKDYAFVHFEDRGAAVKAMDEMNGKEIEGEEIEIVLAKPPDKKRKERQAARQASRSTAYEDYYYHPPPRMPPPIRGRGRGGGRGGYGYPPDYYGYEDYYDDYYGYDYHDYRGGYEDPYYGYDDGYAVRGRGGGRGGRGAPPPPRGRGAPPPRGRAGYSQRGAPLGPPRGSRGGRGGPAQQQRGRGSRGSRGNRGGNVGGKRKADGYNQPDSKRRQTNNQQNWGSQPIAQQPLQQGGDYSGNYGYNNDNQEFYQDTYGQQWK
Description: pull-down; GST pull-down, GST-hnRNP R or GST alone immobilised; Mediator, PC4 or FLAG-luciferase in solution (Figure 4A); essentially as described in ref. 20; both purified.

In test [5] the target is T3, GST-hnRNP R (heterogeneous nuclear ribonucleoprotein R) (human). Description: pull-down; GST pull-down between hnRNP R and GTFs or Pol II (Figure 4C); which partner carried GST is not stated; essentially as described in ref. 20; both purified.
Test [6] concerns the target T4, GST-ATF1 (activating transcription factor 1) (UniProt P18846).
T4 sequence: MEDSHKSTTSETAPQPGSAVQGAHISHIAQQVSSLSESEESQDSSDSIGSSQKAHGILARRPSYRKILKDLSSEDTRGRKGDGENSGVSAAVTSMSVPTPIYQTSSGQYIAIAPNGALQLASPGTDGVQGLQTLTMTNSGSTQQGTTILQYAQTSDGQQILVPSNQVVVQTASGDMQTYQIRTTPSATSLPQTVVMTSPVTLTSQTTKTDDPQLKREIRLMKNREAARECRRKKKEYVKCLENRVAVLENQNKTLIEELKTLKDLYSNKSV
As to the kind of experiment: pull-down; GST pull-down, GST-Elk-1, -CREB, -ATF1, -SRF or GST immobilised; hnRNP R in solution (Figure 4B); essentially as described in ref. 20; both purified.

Test [7] addresses GST-CREB (CRE-binding factor) (UniProt P16220). The test is described as above.
Test [8] addresses T5, GST-Elk-1 (Ets-related transcription factor) (UniProt P19419).
T5 sequence: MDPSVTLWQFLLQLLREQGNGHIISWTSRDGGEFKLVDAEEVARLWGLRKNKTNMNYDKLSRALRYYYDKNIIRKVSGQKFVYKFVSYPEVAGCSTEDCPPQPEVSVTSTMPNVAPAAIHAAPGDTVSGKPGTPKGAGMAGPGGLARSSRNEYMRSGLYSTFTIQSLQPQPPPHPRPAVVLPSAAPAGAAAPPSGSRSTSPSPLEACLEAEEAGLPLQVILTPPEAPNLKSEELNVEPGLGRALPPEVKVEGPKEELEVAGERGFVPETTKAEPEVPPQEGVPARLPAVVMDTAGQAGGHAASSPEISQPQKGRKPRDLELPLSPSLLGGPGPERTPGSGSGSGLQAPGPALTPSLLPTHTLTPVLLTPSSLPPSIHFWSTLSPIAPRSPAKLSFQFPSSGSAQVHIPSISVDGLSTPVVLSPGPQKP
The test is described as above.

In test [9] the target is T6, GST-SRF (serum response factor) (UniProt P11831).
T6 sequence: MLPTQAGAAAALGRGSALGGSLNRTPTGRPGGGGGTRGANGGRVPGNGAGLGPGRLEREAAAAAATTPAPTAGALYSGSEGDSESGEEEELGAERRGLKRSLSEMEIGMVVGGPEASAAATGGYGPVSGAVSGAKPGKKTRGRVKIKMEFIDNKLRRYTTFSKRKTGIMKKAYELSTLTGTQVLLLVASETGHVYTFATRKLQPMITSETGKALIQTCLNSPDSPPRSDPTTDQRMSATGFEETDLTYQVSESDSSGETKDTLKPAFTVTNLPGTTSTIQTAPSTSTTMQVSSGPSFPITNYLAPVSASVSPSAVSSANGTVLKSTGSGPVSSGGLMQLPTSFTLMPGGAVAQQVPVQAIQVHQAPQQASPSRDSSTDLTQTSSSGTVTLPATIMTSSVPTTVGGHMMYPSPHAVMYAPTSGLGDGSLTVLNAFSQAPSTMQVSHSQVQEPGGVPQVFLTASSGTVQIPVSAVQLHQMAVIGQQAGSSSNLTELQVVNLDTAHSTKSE
The test is described as above.

For test [10], the target named is T2, 3xFLAG-tagged MED10 (Nut2). As to the kind of experiment: co-IP; Med(0.85): 0.85 M KCl phosphocellulose (P11) fraction of nuclear extract of HeLa cells expressing 3xFLAG-MED10, purified on anti-FLAG M2 affinity gel; subunits detected by Western blot.

For “CREB, endogenous in HeLa nuclear extract (from UniProt P16220 1-327)”, the binding entry in test [1] is listed as “binds”.
Regarding Cyclin C (from UniProt P24863 1-283), the binding entry in test [2] was “binds”; in test [3], “no binding”.
For “FLAG-tagged luciferase (from UniProt P08659 1-550) (enzyme)”, the binding entry in test [4] is “no binding”.
MED13 (from UniProt Q9UHV7 1-2174): the binding entry is listed as “binds” in test [2] and “no binding” in [3].
As to TBP (from UniProt P20226 1-339), the binding result in test [5] is reported as “binds”.
As to TFIIB (from UniProt Q00403 1-316), the binding entry in [5] is recorded as “binds”.
For the molecule “cyclin-dependent kinase 8 (CDK8) (from UniProt P49336 1-464)”, the results for the binding entry in [2] and in [3] were “binds” and “no binding”, respectively.

B1: Elk-1, endogenous in HeLa nuclear extract (protein, UniProt P19419 1-428)
chain: MDPSVTLWQFLLQLLREQGNGHIISWTSRDGGEFKLVDAEEVARLWGLRKNKTNMNYDKLSRALRYYYDKNIIRKVSGQKFVYKFVSYPEVAGCSTEDCPPQPEVSVTSTMPNVAPAAIHAAPGDTVSGKPGTPKGAGMAGPGGLARSSRNEYMRSGLYSTFTIQSLQPQPPPHPRPAVVLPSAAPAGAAAPPSGSRSTSPSPLEACLEAEEAGLPLQVILTPPEAPNLKSEELNVEPGLGRALPPEVKVEGPKEELEVAGERGFVPETTKAEPEVPPQEGVPARLPAVVMDTAGQAGGHAASSPEISQPQKGRKPRDLELPLSPSLLGGPGPERTPGSGSGSGLQAPGPALTPSLLPTHTLTPVLLTPSSLPPSIHFWSTLSPIAPRSPAKLSFQFPSSGSAQVHIPSISVDGLSTPVVLSPGPQKP
On to B1, for which the binding result in test [1] is recorded as “binds”.

B2: FLAG-tagged hnRNP R (F:hnRNP R) (protein, UniProt O43390 1-633)
chain: MANQVNGNAVQLKEEEEPMDTSSVTHTEHYKTLIEAGLPQKVAERLDEIFQTGLVAYVDLDERAIDALREFNEEGALSVLQQFKESDLSHVQNKSAFLCGVMKTYRQREKQGSKVQESTKGPDEAKIKALLERTGYTLDVTTGQRKYGGPPPDSVYSGVQPGIGTEVFVGKIPRDLYEDELVPLFEKAGPIWDLRLMMDPLSGQNRGYAFITFCGKEAAQEAVKLCDSYEIRPGKHLGVCISVANNRLFVGSIPKNKTKENILEEFSKVTEGLVDVILYHQPDDKKKNRGFCFLEYEDHKSAAQARRRLMSGKVKVWGNVVTVEWADPVEEPDPEVMAKVKVLFVRNLATTVTEEILEKSFSEFGKLERVKKLKDYAFVHFEDRGAAVKAMDEMNGKEIEGEEIEIVLAKPPDKKRKERQAARQASRSTAYEDYYYHPPPRMPPPIRGRGRGGGRGGYGYPPDYYGYEDYYDDYYGYDYHDYRGGYEDPYYGYDDGYAVRGRGGGRGGRGAPPPPRGRGAPPPRGRAGYSQRGAPLGPPRGSRGGRGGPAQQQRGRGSRGSRGNRGGNVGGKRKADGYNQPDSKRRQTNNQQNWGSQPIAQQPLQQGGDYSGNYGYNNDNQEFYQDTYGQQWK
For B2, the binding result in [6] is given as “binds”; in [7], “binds”; in test [8], “binds”; in test [9], “no binding”.

B3: MED17 (protein, UniProt Q9NVC6 1-651)
chain: MSGVRAVRISIESACEKQVHEVGLDGTETYLPPLSMSQNLARLAQRIDFSQGSGSEEEEAAGTEGDAQEWPGAGSSADQDDEEGVVKFQPSLWPWDSVRNNLRSALTEMCVLYDVLSIVRDKKFMTLDPVSQDALPPKQNPQTLQLISKKKSLAGAAQILLKGAERLTKSVTENQENKLQRDFNSELLRLRQHWKLRKVGDKILGDLSYRSAGSLFPHHGTFEVIKNTDLDLDKKIPEDYCPLDVQIPSDLEGSAYIKVSIQKQAPDIGDLGTVNLFKRPLPKSKPGSPHWQTKLEAAQNVLLCKEIFAQLSREAVQIKSQVPHIVVKNQIISQPFPSLQLSISLCHSSNDKKSQKFATEKQCPEDHLYVLEHNLHLLIREFHKQTLSSIMMPHPASAPFGHKRMRLSGPQAFDKNEINSLQSSEGLLEKIIKQAKHIFLRSRAAATIDSLASRIEDPQIQAHWSNINDVYESSVKVLITSQGYEQICKSIQLQLNIGVEQIRVVHRDGRVITLSYQEQELQDFLLSQMSQHQVHAVQQLAKVMGWQVLSFSNHVGLGPIESIGNASAITVASPSGDYAISVRNGPESGSKIMVQFPRNQCKDLPKSDVLQDNKWSHLRGPFKEVQWNKMEGRNFVYKMELLMSALSPCLL
Consider B3, for which the binding result in [2] and in test [10] was “binds” in each case.
